Source: PubChem BioAssay AID1346428 (National Center for Advancing Translational Sciences (NCATS), 2018)
“And” between values parts separate entries of the source, which are not always exact repeats. Identical values can stand only once. Out of some 48,000 compounds screened, about 1,200 (2.5%) were called active. Roughly 2% stayed inconclusive and do not appear here.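 Rule for the calls: active = activation of at least 60% and not above a set upper limit (about 1 call in 100 departs from these limits); inconclusive = activation of 40% to 60%, or above that upper limit; inactive = activation under 40%.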 This is one part of the list.

target: Probable G-protein coupled receptor 32 (Homo sapiens) (UniProt O75388); test: qHTS for Agonists of Human Resolvin D1 Receptor DRV1; details: CHO-K1 GPR32 beta-arrestin PathHunter luminescence, 90 min; at 76.9 µM; hits give high values; zero percent set by DMSO-only wells; note: 0% is about no effect
Method in brief: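 PathHunter beta-arrestin recruitment in CHO-K1 cells stably expressing ProLink-tagged GPR32. Cells were exposed to compound for 90 min at 37 C, then chemiluminescence was read after 1 h detection at ambient temperature; DMSO served as basal control.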

Chain of UniProt O75388 (O75388 whole entry, looked up): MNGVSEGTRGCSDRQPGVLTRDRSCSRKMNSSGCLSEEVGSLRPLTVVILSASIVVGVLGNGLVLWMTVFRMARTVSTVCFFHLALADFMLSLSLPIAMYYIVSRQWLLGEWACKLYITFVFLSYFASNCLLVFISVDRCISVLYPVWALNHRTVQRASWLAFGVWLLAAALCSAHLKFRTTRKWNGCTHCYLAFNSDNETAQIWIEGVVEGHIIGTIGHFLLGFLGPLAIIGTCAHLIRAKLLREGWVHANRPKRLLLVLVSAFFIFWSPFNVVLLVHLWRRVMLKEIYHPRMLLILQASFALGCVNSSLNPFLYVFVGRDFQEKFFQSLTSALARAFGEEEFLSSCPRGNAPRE

activation, inactive:
CCCNC(=O)c1ccc2c(c1)ncn2-c1ccc(C)cc1C -3.93%
COc1ccc(CNc2ncnc3onc(C)c23)cc1 26.7%
COP(=O)(OC)OC(c1ccc(Cl)cc1)P(=O)(OC)OC (centres undefined) -12.5%
CN(C)CCNC(=O)c1ccc(-n2c(-c3ccccc3)cc3c2CCCC3)cc1 -20%
CCc1ccc(CNC(=O)c2ccc3c(c2)N=C(C)c2cc(C)ccc2S3)cc1 -6.12%
CCCC(O)C(CC)CO (centres undefined) -2.84%
CC(CN(C)C)CN1c2ccccc2CCc2ccccc21 (centres undefined) 0.929% and -10%
CC(C)C(=O)c1c(C(C)C)nn2ccccc12 -13.4% and 8.43%
COc1ccc(Nc2ncc3c(n2)CCN(Cc2cc(Br)cs2)C3)c(OC)c1 17.7%
O=C(O)CSc1c2c(nc3cc(C(=O)Nc4ccc(F)c(Cl)c4)ccc13)CCC2 -8.69%
CCCCOc1ccccc1C(=O)N(Cc1ccc(C)o1)C1CCS(=O)(=O)C1 (centres undefined) -3.62%
Cc1ccc(NC(=O)CSc2nc3c(oc4ccccc43)c(=O)n2-c2ccc(F)cc2)c(C)c1 4.24%
CCOC(=O)c1ccc(N2CCN(c3cc(C)ccc3C)CC2)c(NC(=O)Nc2ccccc2)c1 -21.7%
COc1ccccc1NC(=O)c1cc2c(=O)oc3ccc(C)cc3c2s1 5.69%
Cc1cccn2c(=O)c3cc(C#N)c(=O)n(-c4nnc(SCc5ccccc5F)s4)c3nc12 0.49%
C=Cc1ccc(Cn2nc(-c3ccc(C)c(S(=O)(=O)N(CC)CC)c3)ccc2=O)cc1 -15.7%
COc1ccc2cc(-c3nc4ccc(C(=O)O)cc4[nH]3)c(=O)oc2c1 20%
COCCCNC(=O)CCCCn1c(=O)c2ccccc2n(CC(=O)Nc2ccc(C)cc2C)c1=O -3.61%
CCOc1ccccc1NC(=O)Cn1nnc2sc(-c3ccccc3)cc2c1=O -2.92%
COCCNC(=O)CSc1nc2cc3c(cc2c(=O)n1CCCCCC(=O)NCc1ccc(OC)cc1)OCO3 -1.75%
COc1ccc(CNC(=O)c2ccc3c(c2)nc2n3CCC(C)C2)c(OC)c1 (centres undefined) -13%
CC(C)c1ccc(S(=O)(=O)NCc2ccc3c(c2)CCN3C(=O)c2ccccc2)cc1 -17.6%
COc1ccc(Br)cc1C(=O)Nc1nc2ccc(F)cc2s1 -6.16%

activation, active:
Cn1nc(-c2ccc(C(=O)Nc3ccc(F)cc3)cc2)c2ccccc2c1=O 105%
